Test results reported in the RNAGym collection of RNA variant scans (doi:10.1093/nar/gkz1192).
The source gives no read counts; variants with many changes may rest on few reads.

B1: CPEB3 Ribozyme (parent)
chain: UAACAGGGGGCCACAGCAGAAGCGUUCACGUCGCAGCCCCUGUCAGAUUCUGGUGAAUCUGCGAAUUCUGCUGUAUAUCUC

Variants of: B1
Assay: self-cleavage, relative activity (ratio to wild type); higher = more cleavage; in vitro, sequencing
Method in brief: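 Barcoded CPEB3 ribozyme mutants, produced by rounds of error-prone PCR, self-cleaved while being transcribed with T7 RNA polymerase for 5 hours at 37°C and during a subsequent 15 min DNase I step before EDTA was added. Sequencing of template-switched cDNA on Illumina gave cleaved and total reads, and DNA sequencing assigned barcodes to variants. Each variant's relative activity is its cleaved/total read fraction divided by the unmutated ribozyme's fraction, averaged across three batches. A variant needed a minimum of 5 reads.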

| Variant | self-cleavage |
| --- | --- |
| UAACAGGGGGCCACGGCAGAAGCGUUCACGUUGCAGCCCCUGUCAGAUUCUGGUGAACCUGCGAAUUCUGCUGUAUAUCUC | 0.16 |
| UAACAGGGGGCCACGCCAGAAGCGUUCACGUCGCAGCCCCUGUCAGGUUCUGGUGUAUCUACGAAUUCUGCUGUAUAUCUC | 0.1 |
| UAACAGGGGGCCACGGCAGAAGCGUUCACGUCGCAGCCCCUGUCAGUUUCUGGUGAACCUGCGAAUUCUGCUGUUUAUCUC | 0.22 |
| UAACAGGGGGCCACGGCAGAAGCGUUCACGUCGCAGCCCCUGUCAGAUUCUGGUGGAUCUGCGAAUUCUGCAGUAUAUCUC | 0.48 |
| UAACAGGGGGCCACGGCAUAAGCGUUCACGUCGCAGCCCUCGUCAGAUUCUGGUGAAUCUGCGAAUUCUGCUGUAUAUCUC | 0.27 |
| UAACAGGGGGCCACGGCAGAAGCGUUCACGUCGCAGCACCCGUCAUACUCUGGUGAAUCUGCGAAUUAAGCUGUAUAUCUC | 0.18 |
| UAACAGGGGGCCACGGCAGAAGCGUUCACGUCGCAGCUCCUGUCAGAUUCUGGUGAAUCUGCGAAUUCUGCUGUACAUCCC | 1.13 |
| UAACAGGGGGCCACGGCAGAAGCGUUCACGUCGCAGCCCCUGUCAGAUUCUGGUGUAUCUGCGAACUCUGCUGUAUAUCUC | 0.08 |
| UAACAGGGGGCCACGGCAGAAGCGUUCACGUCGCAGCCCCUGUCAGAUUCUGGUGAGUCUGCGAAUUCUGCCGUAUAUCUC | 1.23 |
| UAACAGGGGGCCACGGCAGAAGGGUUCACGUCGCAGCCCCUGUCAGAUUCUGGUGAAUCUGCUAAUUCCGCCGUAUAUCUC | 0.08 |
| UAACAGGGGGCCACGUCAGAAGCGUUCACGUCGCAGCCCCUGUCAGAUUCUGGUGAAUCUGCGUAUUCUGCAGUAUAUCUC | 0.1 |
| UAACAGGGGGCCACGGCAGAAACGUUCACGUCGCAGCCCCUGUCAGAUCCUGGUGAAUCUGCGAAUUCUGCUGUAUAUCUC | 0.14 |
| UAACAGGGGGCCACGGCAGAAACGUUCACGUCGCAGCCCCUGUCAGAUACUGGUGAAUCUGCGAAUUCUGCUGUAUAUCUC | 0.16 |
| UAACAGGGGGCCACGGCAGAAGCGUUCACGUCGCAGCCCCUGUCAGAUUCUGGUGUAACUGCGAAUUCUGCUGUAUAUCUC | 0.15 |
| UAACAGGGGGCCACGGCAGAAGCGUUCACGUCGCAGCCCCUGUCAGGUUCUGGAGCAUCUGCGAAUUCUGCGGUAUAUCCC | 0.32 |
| UAACAGGGGGCCACGGCAGAAGCGUUCACGUCGCAGCCCCUGUCAGAUUCUGGUGAAUCUGCGCAUUCUACUGUAUACCUC | 0.15 |
| UAACAGGGGGCCACGGCAGAAGCGUUCACGUCGCAGCCACUGUCAGCUUCUGGUGAAUCUGCGAAUUCUGCUGUAUAUCUC | 0.18 |
| UAACAGGGGGCCACGUCAGAUGCGUUCUCGUCGCAGCCCCUGUCAGAUUCUGGUGAAUCUGCGAUUUCUGCUGUAUAUCUC | 0.11 |
| UAACAGGGGGCCACGGCAGAAGCGUUCACGUCGCAGCCCCUGUCAGAUUCUGGUGAAUGCGCGAAUUCUGCUGUAUAUCUC | 0.15 |
| UAACAGGGGGCCACGGCAGAAGCGUUCACGUCGCAGCCGCUGUCAGGUUCUGGCGAGUCUGAGAAUUCCGCUGUAUAUCUC | 0.02 |
| UAACAGGGGGCCACGGCAGAAGCGUUCACGUCGCUGCCCCUGUCAGAUUCUGGUGAAUCCGCGAUUUCUGCUGUAUAUCUC | 0.16 |
| UAACAGGGGGCCACGGCAGAAGCGUUCACGUCGCAGCCCCUGUCGGGUUCUGGUGAUUCUGCGAAUUCUGCUGUAUGUCUC | 0.08 |
| UAACAGGGGGCCACGGCAUAUGCGUCCACGACGCAGCCCCUGUCAGAUUCUGGUGAACCUGCGAAUACUGCUGUAUAUCUC | 0.06 |

| Variant | self-cleavage |
| --- | --- |
| UAACAGGGGGCCACGGCAGAAGCGUUCACGUCGAAGCCCCUGCCAGACUCUGGUGAAUCUGCGAAUACUGCUGUAUAUCUC | 0.08 |
| UAACAGGGGGCCACGGCAUAAGCGUACACGUCGCAGCCCCUGUCUGAUUCUGGUGAAUCCGCGAAUUCUGCUGUAUAUCUC | 0.12 |
| UAACAGGGGGCCACGGCAGAAGCGUUCACGUCGCAGCCCUUGUCAGAUUCCGGUGAAUCUGUGAAUUCUACUGUAUAUCUC | 0.09 |
| UAACAGGGGGCCACGGCAGAAGCGUUCACGUCGCUGCCCCUGUCAGAUUCUGGUGAAUCCGCGAAUUCUGCUGUAUAUCUC | 0.3 |
| UAACAGGGGGCCACGGCAGAAGCGUUCACGUCGCUGCCCCCGUCUGAUUCUGGUGAAUCUGCGAAUUCUGCUGUAUAUCCC | 0.21 |
| UAACAGGGGGCCACGGCAGAAGCGUUCACGUCGCAGCCCCUGUCAGAUUCUGGUGAAUCUGCGGAUUCCGCUGUAUACCUC | 0.13 |
| UAACAGGGGGCCACGGCAGAAGUGUUCACGUCGCAGCCCCUGUCAGAUUCCGGUGAAUCUGCGAGUUCUGCCGUAUUUCUC | 0.22 |
| UAACAGGGGGCCACGGAAGAGGCGUUCACGUCGUAGCCCCAGUCAGAUUCUGGUGAAUCUGCGAUUUCUGCUGUAUAUCUC | 0.06 |
| UAACAGGGGGCCACGGCAGAAGCGUUCACGUCGCAGCCCCUGUCAGAUUCUGGUGAAUCUGCGAAUUUUGCUGUAUAUCCC | 0.46 |
| UAACAGGGGGCCACGGCAGAAGCGUUCACGUCGCAGCCCCUGUCAGAUUCUGGUGAAUCUGUGAACUCUGCAGUACAUCUC | 0.14 |
| UAACAGGGGGCCACGGCAGAAGUGAUCACGUCGCAGCCCCUGUCAGAUUCUGGUGAAUCUGCGAACUCUGCUGUAUAUCUC | 0.11 |
| UAACAGGGGGCCACGGCAGAAGCGUUUACGCCGCAGCCCCUGUCGGAUUUUGGUGAAUCAGCGAAUUCUGCCGUAUAUCUC | 0.05 |
| UAACAGGGGGCCACGGCAGAAGCGUUAACGACGCUGCCCCUGUCAGAUUCUGGUGAAUCUGCGAAUUCUGCUGUAUAUCUC | 0.1 |
| UAACAGGGGGCCACGGCAGAAGCGUUCACGUCGCAGCCCCUGUCGGAUUCUGGUGAAUCUGCGAAUUCUGCUGUAUUUCUC | 0.59 |
| UAACAGGGGGCCACGGCAGAAGUGUUCACGUCGCAGCCCCUGUCAGAUUCUGGUGGAUCUGUGAACUCUGCUGUACACCUC | 0.06 |
| UAACAGGGGGCCACGGCAGAAGCGUUCACGUCGCAGCGCCUGUCAGAUUCUGGUGAAUCUGCGAAUACUGCUGUAUAUCUC | 0.23 |
| UAACAGGGGGCCACGGCAGAAGCGUUCACGUCGCAGCCCCUGUCAGAUUCUGGUGUAUCUGCGAAUCCUGCUGUAUAUGCC | 0.15 |
| UAACAGGGGGCCACGGCAGAAGCGUUCACGUCGCUGCCCCUGUCAGAUUCUGGUGAAUCUGCGAAUUCCGCUGUAUAUCUC | 0.18 |
| UAACAGGGGGCCACGGCAGAAGGGUUCACGUCGCAGCCCCUGUCAGAUUCCGGUGAAUCUGCGAAUUCUGCUGCAUAUCUC | 0.04 |
| UAACAGGGGGCCACGGCAGAAGCGUUCACGUCGCAGCCCCUGUCUGAUUCUGGUGGAUCAGCGAAUACUGCUGUGUAUCUC | 0.11 |
| UAACAGGGGGCCACGGCAGAAGCGUUCACGUCGCAGCCCCUGUCAGAUUCUGGUGAAUCUGCGAUUUCUGCUGUAUACCUC | 0.28 |
| UAACAGGGGGCCACGGCAGAAGAGUUCACGUCGCAGCCCCUGUCAGAUUCUGGUGAUUCUGCGAAUUCUGCUGUAUUUCUC | 0.04 |
| UAACAGGGGGCCACGGCAGAAGCGUUCACGUCGCAGCCCCUGUCGGAUUCUGGUGAAUCAGCGAAUUCUGCUGUAUAUCUC | 0.33 |

| Variant | self-cleavage |
| --- | --- |
| UAACAGGGGGCCACGGCAGAAGCGUUCACGUCGCAGCCCCUGUCGGAUUCUGGUGAAUCCGCGAAUUCUGCUGUAUAUCUC | 1.13 |
| UAACAGGGGGCCACGGCAGAAGCGUUCACGUCGCUGCCCCUGUUAGAUUCUGGUGAAUCUGCGAAUUCUGCUGUAUAUCUC | 0.14 |
| UAACAGGGGGCCACGGCAGAAGCGUUCACGUCGCAGCCCUUGUCAGAUUCUGGCGAAUCUGCGAAUUCUGCUGUAUACCUC | 0.54 |
| UAACAGGGGGCCACGGCAGAAGCGUUCACGUCGCAGCCCCUGUUAGAUUCUGGUGAAUCAGCGAAUUCUGCUGUAUAUCUC | 0.25 |
| UAACAGGGGGCCACGGCAGAAACGUUCAUGUCGCAGCCCCUGUCAGAUUCUGGUGAAUCUGCGAAUUCCGCUGUAUAUCUC | 0.04 |
| UAACAGGGGGCCACGGCAGAAGAGUUCACGUCGCAGCCCCUGUCAGAUUCUGGUGAAUCUGCGUAUCCUGCUGUAUAUCUC | 0.15 |
| UAACAGGGGGCCACGGCAGAAGCAUCCACGUCGCAGCCCCUGUCAGAUUCUGGUGAAUCUUCGAAUUCUGCUGUAUAUCUC | 0.18 |
| UAACAGGGGGCCACGGCAGAAGCGUUCACGUCGCAGCCCCUGUCUGAUUCUGGUGAACCUGCGAAUUCUGCUGUAUAUCUC | 0.16 |
| UAACAGGGGGCCACGGCAGAAGCGUUCACGUCGCAGCCCCUGUCAGGUUCUGGUGAAUCUGCGUAUCCUGCUGUAUAUCUC | 0.2 |
| UAACAGGGGGCCACGGCAGAAGCGUUCACGUCGCAGCCCCUGUCGGAUUCUGGUGAAUCUGCGAAUUCUGCUGUAUACCUC | 0.49 |
| UAACAGGGGGCCACGGCAGAAGCGUUCACGUCGCAGCCCUUGUCUGACUCUGGUGAAUCUGCGAAUUCUGCUGUAUAUCUC | 0.14 |
| UAACAGGGGGCCACGGCAGAAGCACUCACGUCGCAGCGCCUGCCAGAUUCUGGUGGAUCUGCGAGUUCUGCUGUAUAUCUC | 0.2 |
| UAACAGGGGGCCACGGCAGAAGCGUUCACGUCGCAGCCCCUGUCGGAUUCUGGAGAAUCUGCGAAUUCAGCCGUAUAUCUC | 0.38 |
| UAACAGGGGGCCACGGCAGAAGGGUUCACGUCGCAGCCCCUGUCAGAUUCCGGUGAAUCUGCGAAUUCUGCUGUAUAUCUC | 0.09 |
| UAACAGGGGGCCACGGCAGAAGCGUUCACGUCGCAGCCCCUGUUAGAUUCUGGGGAAUCUGCGAAUUCUGCUGUAUAUCUC | 0.13 |
| UAACAGGGGGCCACGGCAGAAGCGUUCACGUCGCAGCACCUGCCAGAUUCUGGUGAAUCUGCUAACUCUGCUGUAUGUCUC | 0.08 |
| UAACAGGGGGCCACGGCAGAAGUGUUCACGUCGCAGCCCCUGUCAGAUUCUGCUGAAUCUGCGAAUUCUGCUGUAUAUCUC | 0.16 |
| UAACAGGGGGCCACGGCAUAAGCGUUCACGUCGCUGCCCCUGUCAGAUUCUGGUGAAUCUGCGAAUUCUGCUGAAUAUCUC | 0.39 |
| UAACAGGGGGCCACGGCAGAAGCGUUCACGUCGCAGCCCCUGUCAGGUUCUGGUGAAUCUGCGAACUCUGCUGUAUAUCCC | 0.24 |
| UAACAGGGGGCCACGGCAGAAGCGUUCACGUCGCAGCCCCUGUCAGGUUCUGGUGAAUCCGCGAAUUCUGCUGUACAUCUC | 0.29 |
| UAACAGGGGGCCACGGCAGAAGCGUUCACGUCGCAGCCCCUGUCAGAUUCUGGUGAAUCUGCGGAUUCUGCUGAAUAUCUC | 0.76 |
| UAACAGGGGGCCACGGCAGAAGCGUUCAGGUCGCAGUCCCUGUCAGAUUCUGGUGAAUCUGCGGAUUCUGCUGUAUAUCUC | 0.2 |
